Measurements as given in the supplement of paper PMC10126150.
Sequences with one replicate were seen in a single cluster, so their values are uncertain.

Test system: ATP
Assay: switch fluorescence ratio, 500 uM ATP over buffer (Cy3 cluster intensity, sum of 5 cycles each) (fold (ratio)); higher = stronger signal-on switching upon ATP binding; sequences stand for … in TCGTCGGCAGCGTCAGATGTGTATAAGAGACAGTTTTTTTTTTTTTTTTTTTTTTTTT…TC
Details: aptamer strand: ATP DNA aptamer (quencher-CACCTGGGGGAGTATTGCGGAGGAAGG + anchor), 100 nM annealed; ATP concentration: 500 uM; one replicate
Summary of the method: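 Imaging in selection buffer was followed by imaging after 15 min with 500 uM ATP at 22 °C, for Cy3-labelled switching-strand clusters annealed to 100 nM quencher-labelled ATP aptamer on a modified Illumina MiSeq flow-cell. Five of these buffer/ATP cycles ran, separated by NaOH stripping and re-annealing. The fluorescence ratio per cluster is summed target-cycle over summed buffer-cycle Cy3 intensity, averaged per switch-domain sequence; clusters outside 100-1000 RFU were removed.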
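Also: ATP exposure 15 min at 22 °C before imaging.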

Row | Sequence | switch fluorescence ratio
1 | AAGGTGCCCA | 1.04
2 | TTAACCATAA | 1.03
3 | TAACTCTAAT | 1
4 | AGTCCCGAGA | 1.02
5 | TAGGGATGG | 1
6 | CGACATGCAT | 1.2
7 | GACAGGAAGG | 0.984
8 | GCAGGAATAG | 2.06
9 | GGACTTTTTC | 0.975
10 | TTGGCGAGAG | 0.987
11 | CACACCCCTA | 1.37
12 | GTCGTACTGG | 0.967
13 | CGGTCAGGAC | 1.17
14 | TGATACTATG | 0.98
15 | ACACGTGCGC | 1.04
16 | TCAACATTAA | 0.976
17 | TATGATAGAA | 1.01
18 | TGGAGGCATA | 0.984
19 | TCGGTGTTGG | 0.982
20 | TAATAGCGAT | 1.07
21 | TTTCCTTCGG | 1.11
22 | TCACCTTCTT | 1.23
23 | TTAGAGATG | 0.968
24 | GACAGATCA | 0.994
25 | ATCAAGGGGC | 1.07
26 | GATGGAGCTC | 1.05

Row | Sequence | switch fluorescence ratio
27 | CTAGACTAGC | 1.04
28 | CTAACGTTCA | 1.05
29 | AAATGGGCCC | 1
30 | GGGGCG | 0.968
31 | GACTAGGACG | 0.992
32 | CGCGTCC | 1.15
33 | TACAAGGGTT | 0.951
34 | AGCCAGCGCT | 0.989
35 | CTATTTTGT | 0.974
36 | TTCTGTGATA | 1.01
37 | TCAGACTAAA | 1.04
38 | GTTAGCGACC | 1.04
39 | TTCAAGTAAG | 1.03
40 | TAGTCCAACT | 1.03
41 | ATGGAAAGCC | 0.99
42 | AGTTATGCA | 0.983
43 | CCCAATTTGT | 0.998
44 | GCAGAGTACG | 0.991
45 | AATAGTATCC | 1.04
46 | CAGTGTCAAT | 1.02
47 | CTCCAATGAT | 1.29
48 | TTGCGTGGCG | 1.03
49 | AGTCCATTTT | 0.981
50 | GGTTACTCGG | 1.03
51 | AATTGGCATG | 1.03
52 | ACCCGGTGCA | 1.69

Row | Sequence | switch fluorescence ratio
53 | GATGTTAGTT | 0.983
54 | CTTCCCTAGC | 3.39
55 | TCGCCTTTGC | 1.09
56 | ACGTATGGG | 1.05
57 | CCCCGTATTG | 1.4
58 | GCTATATTTC | 1.12
59 | CCTAACGGCC | 1.07
60 | TCTAATCAAT | 1.04
61 | TTCCCAAAAT | 1.55
62 | CAGGTTAGAG | 1.02
63 | TAGATGGTTG | 0.991
64 | AGCTGCAAGT | 0.992
65 | CGGGTTGGAC | 1.03
66 | TACGCCCTAG | 1.03
67 | GCTAGGCGTA | 0.961
68 | GGCGCGAGTG | 0.945
69 | GTTAGGGCTG | 1
70 | CTTGTGCCTG | 1.01
71 | ATGGCGTTGA | 1.01
72 | TTCTTCAGTA | 0.995
73 | TTTTAGCAGT | 1.05
74 | AGGTAAGTGT | 0.979
75 | CGTTATACCT | 1.23
76 | GTAATAGCTA | 0.956
77 | AGGGTGGCGA | 1.01
78 | ATTGATTTGG | 0.978

Row | Sequence | switch fluorescence ratio
79 | GAATAATGTG | 0.967
80 | ATGGCTGGGA | 0.957
81 | TCAAGATGTC | 0.945
82 | GTGCATCCG | 0.995
83 | GTAGAGGTTG | 0.948
84 | CTTCCGAGTA | 2.8
85 | GTTGTCATTA | 1.03
86 | CTGCGCGGGA | 1.08
87 | TTATATCTTT | 1
88 | ATTCCTACTA | 1.07
89 | CTCGTTGTCT | 0.974
90 | TCGTGGGAAT | 0.996
91 | ACGTCTGGTC | 0.98
92 | TTGACCTGTC | 0.959
93 | AAGCGTCACG | 1.03
94 | CACTTATTTG | 0.976
95 | TTCAATCGTT | 1.03
96 | CGTTACGGAA | 1.05
97 | GGGAACACGG | 1.05
98 | TTGCACCGGA | 0.962
99 | TAAAGGTTCC | 1.18
100 | GAGCGGGAGA | 1.05
101 | AGTGTTATGT | 0.988
102 | CCCCCGGGAA | 1.44
103 | CCGCCGAGTA | 1.75
104 | CAGGAGGTC | 1.01

Row | Sequence | switch fluorescence ratio
105 | GGCGAGACCC | 1.09
106 | CGATATTGA | 1.02
107 | GAAGTAATAT | 2.2
108 | AGGTGCTCCG | 1.05
109 | ACAGATTTA | 1
110 | CAGGAGCTCT | 1.08
111 | AGTTGAGGTC | 0.965
112 | CCGTTACAGG | 1.23
113 | GGTAGCGGCG | 0.938
114 | GTATAAGTTA | 0.973
115 | ATGGTCGATT | 0.972
116 | CGTTAGGGAC | 1.03
117 | ACAGCAGTG | 1
118 | TCGATCGGTT | 0.953
119 | AGAGCCTGTG | 0.951
120 | TGCCTTGTTT | 0.99
121 | AGCTTATAAC | 1.13
122 | AAACCTTTCA | 2.37
123 | TTTGCTGTCT | 0.991
124 | TGCGTCGCAG | 1.02
125 | ACTCAGCGGC | 1.96
126 | ATGTCAGTGC | 0.958
127 | ATGCGTAGTG | 0.955
128 | ATACTGTATA | 1.17
129 | CTCATAGGGT | 1
130 | ACAGGTATG | 0.995

Row | Sequence | switch fluorescence ratio
131 | CCTACACGGG | 1.08
132 | ATTCATAACG | 1
133 | GGTACGTCCG | 1.01
134 | CGGGCCCGCT | 1.01
135 | CGTGGGCACA | 0.975
136 | CTGCTGATTC | 1.15
137 | TCGGAGGGA | 1
138 | TAGGCTAAGT | 1.02
139 | CGGAGGTTT | 1.06
140 | TAAATAGGCG | 1.05
141 | AAATATATCG | 1.02
142 | GTATTTCGG | 1.02
143 | GCAGCACTTA | 1.19
144 | AGAGTCCGAA | 1.01
145 | GTAGTTCGGT | 0.943
146 | ATGCACGGCA | 1.01
147 | TTAGATGGAA | 0.998
148 | TTCGTATAAA | 0.959
149 | TGAGCTGGTC | 0.992
150 | CACTGCAG | 1.01
151 | CAGTCATCTC | 0.964
152 | ATAGCGGTCA | 0.965
153 | GGGCTGCGTA | 0.968
154 | GGACTCGTCG | 0.96
